# Source: ChEMBL document CHEMBL4888484, “Replenishing the malaria drug discovery pipeline: Screening and hit evaluation of the MMV Hit Generation Library 1 (HGL1) against asexual blood stage Plasmodium falciparum ,using a nano luciferase reporter read-out” (2022)
# In all, about 150,000 compounds went through this assay and about 540 (0.36%) showed an effect of 50% or more. This is one part of the list.
# Tested on: Plasmodium falciparum
# Test: Primary screen in NF54 nanoGlo assay, in single point, at 2uM, 72h; a lower Z score goes with more inhibition
# Type: functional, Erythrocyte
# Settings: timepoint 72 hour
SMILES,% Inhibition,Z score
CCCc1noc(CN(C)C(=O)c2n[nH]nc2C)n1,-3%,0.43
CCCc1nnc(NC(=O)CCC(=O)N2CCN(C(=O)c3ccco3)CC2)s1,-6%,0.73
O=C(Nc1nc2c(s1)CNCC2)c1ccsc1,11%,-1.41
Cc1cc(NC(=O)c2cccc(F)c2Cl)nnc1C,1%,-0.09
O=C(c1cnn2ccccc12)N1CC(c2ccccc2F)C1,-4%,0.55
Cc1nc(CN(CCN2CCOCC2)c2ccccc2)oc1C,-3%,0.49
CC(C)c1ccc(/N=C(\NCc2cccnc2)NC(=O)c2cccc(N(C)C)c2)cc1,1%,-0.12
CCn1ncc(NC(=O)N[C@H]2CCCC23CCCCC3)c1C(F)(F)F,6%,-0.68
O=C(Cn1cnnn1)N1CCCCCC1CC(O)c1ccccc1 (stereo not given),-1%,0.22
CCn1ncnc1CN(C)[C@@H](C)c1ccccn1,-2%,0.29
CC(C)(C)OC(=O)N1CCN(c2ccc3c(c2)CCC(=O)N3)CC1,-9%,1.17
CC(C(=O)NCc1ccccc1)N1CCCCC1Cn1cccn1 (stereo not given),-4%,0.41
COc1cccc2c1CCc1c-2n[nH]c1C(=O)NCCc1ccco1,-18%,3.01
CCS(=O)(=O)N1CCC[C@H]1C(=O)N1CCc2ccccc21,-19%,3.65
CC[C@@H](C(=O)N1CC(n2ccnn2)C1)c1ccccc1,-10%,1.09
CC(C)(C)S(=O)(=O)[C@H]1CCN(S(=O)(=O)c2ccccc2C(F)(F)F)C1,5%,-0.81
Clc1cccc(-c2nc(-c3ccccc3)c(-c3ccc(-c4ccccc4)cc3)[nH]2)c1,1%,-0.17
O=c1ccncn1CC1CCN(CCc2ccc3c(c2)CCO3)CC1,-6%,0.91
CN(C(=O)c1ccccc1)C1CC2CCC(C1)N2C(=O)c1csc(=O)[nH]1 (stereo not given),-1%,0.2
CC(C)c1nccc(CN2CC[C@@H](CO)[C@@H](O)C2)n1,-8%,0.88
CC1CCC(C(=O)OC(C)(C)C)CN1C(=O)c1ocnc1C1CC1 (stereo not given),-15%,1.69
CN(C(=O)c1cnc(O[C@H]2CCOC2)c(Cl)c1)c1ccccc1,-8%,1.5

SMILES,% Inhibition,Z score
O=C(NS(=O)(=O)c1ccc2c(c1)OCCCO2)c1cc2c(s1)CCC2,43%,-6.18
Cc1cc(C(=O)N2CCC(N3CCc4cc(F)ccc43)CC2)cc(O)n1,0%,0.05
CC(=O)N[C@@H](CC(C)C)C(=O)Nc1cc(C)[nH]c(=O)n1,8%,-1.08
CCN1CCN(C2CCN(Cc3nc(-c4ccc(C(=O)OC)cc4)no3)CC2)CC1,-5%,0.78
Fc1ccc(Oc2ncccc2CNC2CCOCC2)cc1F,-1%,0.23
CCCn1c(=O)sc2cc(NC(=O)Cc3ccc(OC)cc3)ccc21,11%,-1.39
Cc1ccc(S(=O)(=O)/N=C(\CN2CCCC2)N2CCCC2)cc1,0%,0.03
CC1CC(C(=O)Nc2[nH]c(=O)ncc2F)CC(C)(C)C1 (stereo not given),92%,-13.24
O=C(N1CCN(c2nccc(-c3ccc4c(c3)OCO4)n2)CC1)C(F)(F)C(F)F,-10%,1.47
CC[C@H](N)C(=O)Nc1nn(-c2ccc(F)cc2)c2cccc(Oc3cccnc3)c12,-5%,0.65
O=C(NCc1ccncc1)c1cn2c(n1)CC[C@H](c1cc(C(F)(F)F)cc(C(F)(F)F)c1)C2,-11%,1.76
O=C(CN1CCCS1(=O)=O)NCCc1cnc2ccccc2c1,-10%,1.48
COc1cccc(C(=O)N2CCCCCCC2)n1,-7%,1.04
O=S(=O)(Nc1nnc2ccccn12)c1cc(F)c(F)c(F)c1,-16%,1.83
Cc1ccc(-c2nc(C(=O)N(C)CCCc3cc(-c4cccc(F)c4)n(C)n3)cs2)o1,-9%,0.81
c1ccc(-c2noc(Cn3cnc4ccccc43)n2)nc1,-6%,0.74
Cc1nc(-c2cc(C)on2)n(CCc2ccccc2)n1,-11%,1.44
CCOC(=O)N1CCN(C(=O)c2ccc3nsnc3c2)CC1,-4%,0.56
CN(Cc1nnc2n1CCC2)C(=O)c1ccc2c(c1)CCCC2,-22%,2.23
CN(CCCC1CCCC1)c1cc([C@H]2CCOC2)nc(N2CC(O)C2)n1,-9%,0.96
CC(C)(C)OC(=O)N[C@@H]1C=C[C@H](CO)C1,-7%,1.16
CCC1(CC)CN(C(=O)Cc2nnc(N)s2)CCO1,-3%,0.59

SMILES,% Inhibition,Z score
CCOCCc1nc(CC(N)=O)nn1-c1cccnc1,-10%,1.73
Cc1cccc([C@H](C)NCCCCn2ccnc2C)c1,-4%,0.35
CN1CCN(C(=O)NC2CCC(F)C2)CC1 (stereo not given),-7%,0.74
Cc1nccn1Cc1nnc([C@H]2CCCN(c3ccncc3F)C2)n1C,-20%,2.13
COc1ccccc1CNC(=O)Cn1nc2c(N3CCC(C)CC3)nccn2c1=O,-20%,1.94
Cc1c(C#N)c(NC(=O)CNC(C)c2cccs2)n(CC2CCCO2)c1C (stereo not given),-5%,0.4
Cc1ccc2nc(CNc3ccccc3)cc(=O)n2c1,-12%,1.17
CC(C)Oc1ccccc1CN1CC(n2cc([C@H](C)O)nn2)C1,-6%,0.82
O=C(Nc1ccccc1CN1C(=O)CCC1=O)c1cc2c(s1)CCCCC2,-10%,1.35
CNc1snc(C)c1C(=O)N1CCC2(CC1)NC(=O)NC2=O,-5%,0.82
C[C@H]1[C@@H](C(=O)OC(C)(C)C)CCCN1C(=O)c1cccnc1,-5%,0.65
O=C(NC[C@@]12CCCC=C1N(Cc1ccccc1)C(=O)CC2)c1ccncc1,8%,-1.21
CO[C@H]1[C@H](NC(=O)c2ccccn2)c2ccccc2C12CCN(C(=O)[C@@H](O)c1ccccc1)CC2,8%,-1.17
COc1cc(Br)cc(C)c1NC(=O)N[C@H]1CCCOC1,2%,-0.27
Cc1ccc(CNC(=O)N2C[C@@H](Oc3ccccc3)C[C@@H]2C(=O)N2CCOCC2)cc1,-10%,1.96
CC(=O)N1CCN(C(=O)CN2CC(C)CC2c2ccccc2F)CC1 (stereo not given),-12%,1.13
CCN(CC)c1cc(CCC(=O)N2CCCC2)ccn1,-11%,1.13
Cc1ccc2c(c1)C(=O)N(CCC(=O)N(C)C1CCCC1)C2=O,-1%,0.13
COCCOCCN[C@H]1CCCc2c(Cl)sc(Cl)c21,-10%,1.03
O=C1C[C@@H](C(=O)Nc2ccccc2Nc2ccc(F)cc2F)CCN1,-8%,0.91
COc1cc(-c2nc3ccccc3s2)cc(Cl)c1OCC(=O)c1ccccc1,-6%,0.97
Cc1[nH]c(=O)[nH]c(=O)c1CC(=O)N1CCNC(=O)[C@@H]1c1cccc(F)c1,11%,-1.47

SMILES,% Inhibition,Z score
CC(C)CCOc1ccccc1CNC(=O)[C@@H]1CNC(=O)N1,-18%,1.48
O=C(NCC(=O)N1CC[C@H]2[C@H](C1)OCc1cnnn12)c1ccccc1,-8%,0.82
O=C(NCc1cccnc1Oc1ccc(F)cc1F)[C@H]1CCCN1,-6%,0.76
COc1ncccc1CN1C(=O)COc2cccnc21,10%,-2.02
O=C(CN1C(=O)CCn2nc(-c3cccc(Cl)c3)cc21)NCCN1CCCCC1,8%,-1
c1coc([C@H](CNc2cncc3nnnn23)N2CCCC2)c1,-21%,2.14
CN(C)C(=O)C1CCC(CNC(=O)c2n[nH]c3c2CCCCC3)O1 (stereo not given),-9%,1.38
COCCOCc1nc([C@@H]2CCCN2S(=O)(=O)c2cc(F)ccc2F)no1,-5%,0.62
CN(c1cccc(C#N)c1)C1CCN(C(=O)C2CCS(=O)(=O)C2)C1 (stereo not given),-1%,0.17
CN1C[C@@H](CNc2nc3cccc(F)c3s2)CC1=O,-3%,0.28
NC(=O)CC(=O)Nc1ncc(-c2ccccc2F)s1,4%,-0.56
CCOC(=O)C1(CNc2nc(C)c(S(N)(=O)=O)s2)CCCC1,0%,0
O=C(Nc1ncc(Cc2ccc(F)cc2F)s1)c1cnc[nH]1,-4%,0.69
CCc1nnc(CNc2cc(C)c(C)c3ncccc23)s1,5%,-0.98
COc1ccc2cc1Oc1cccc(c1)CO[C@H]1CCN(C(=O)CCc3ccccc3)C[C@@H]1NC(=O)CN(CCCO)C2=O,-12%,1.48
CC1(C)CC(CN2CCn3c(n[nH]c3=O)C2)C1,-15%,1.5
CN(CC(F)(F)F)C(=O)c1ccoc1,-13%,1.84
Cc1c(-c2cccc(CN3CCCS3(=O)=O)c2)cnc2[nH]ccc12,30%,-3.36
O=S(=O)(c1cccc2nonc12)N1CCc2[nH]c3ccc(F)cc3c2C1,3%,-0.42
